The text below walks through data of PMC4336329 (PLoS ONE, 2015).

Hit rate of the full screen: of about 310,000 compounds, about 2,200 (0.71%) showed an effect of 50% or more. The effect is printed as a negative number. This is one part of the list.

In this test the target is human ether-à-go-go-related gene (hERG) potassium channel (human, UniProt Q12809). Nature of the test: primary screen, population patch clamp on CHO cells stably expressing hERG.
human ether-à-go-go-related gene (hERG) potassium channel, sequence (Q12809 whole entry, looked up): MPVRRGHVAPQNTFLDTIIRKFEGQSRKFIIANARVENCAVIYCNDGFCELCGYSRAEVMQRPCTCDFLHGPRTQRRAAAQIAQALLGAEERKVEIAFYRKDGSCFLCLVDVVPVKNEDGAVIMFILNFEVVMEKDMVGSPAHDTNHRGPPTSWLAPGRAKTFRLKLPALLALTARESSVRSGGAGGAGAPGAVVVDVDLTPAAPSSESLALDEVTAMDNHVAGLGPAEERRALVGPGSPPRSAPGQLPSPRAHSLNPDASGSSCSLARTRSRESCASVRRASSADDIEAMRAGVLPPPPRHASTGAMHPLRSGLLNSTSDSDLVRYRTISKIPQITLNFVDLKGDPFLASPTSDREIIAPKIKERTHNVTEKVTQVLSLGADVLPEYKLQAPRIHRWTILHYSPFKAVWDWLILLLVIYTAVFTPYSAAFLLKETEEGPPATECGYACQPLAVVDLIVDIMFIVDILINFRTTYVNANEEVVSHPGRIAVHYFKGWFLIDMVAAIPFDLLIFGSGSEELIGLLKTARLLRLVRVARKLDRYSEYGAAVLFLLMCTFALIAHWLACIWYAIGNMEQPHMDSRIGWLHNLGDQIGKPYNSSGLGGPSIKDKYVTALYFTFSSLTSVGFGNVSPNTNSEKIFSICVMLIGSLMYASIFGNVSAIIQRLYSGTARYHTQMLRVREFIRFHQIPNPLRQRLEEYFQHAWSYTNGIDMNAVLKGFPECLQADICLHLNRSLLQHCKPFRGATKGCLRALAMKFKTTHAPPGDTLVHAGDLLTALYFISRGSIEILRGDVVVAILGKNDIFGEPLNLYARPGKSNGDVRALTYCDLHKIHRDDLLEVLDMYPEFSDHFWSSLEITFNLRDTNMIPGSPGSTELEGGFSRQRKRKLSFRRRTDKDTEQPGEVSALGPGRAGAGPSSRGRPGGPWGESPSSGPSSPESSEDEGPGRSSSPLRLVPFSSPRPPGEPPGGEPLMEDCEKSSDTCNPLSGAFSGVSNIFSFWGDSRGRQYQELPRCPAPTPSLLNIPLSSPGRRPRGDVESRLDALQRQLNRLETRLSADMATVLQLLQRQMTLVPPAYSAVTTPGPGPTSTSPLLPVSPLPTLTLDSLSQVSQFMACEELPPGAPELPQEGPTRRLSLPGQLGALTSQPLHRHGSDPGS
`CC(=O)O[C@H]1CC[C@@]2(C)C(CCC3C2CC[C@]2(C)OC(=O)CCC32)C1` (stereo partly shown): the “hERG current change (%, negative = inhibition) at 1uM” value turned out to be 5.73%.

For `CC(=O)NCCc1ccc(S(=O)(=O)NC2OC(=O)c3ccccc32)cc1` (stereo not shown), the “hERG current change (%, negative = inhibition) at 1uM” value stood at 2.05%.

On to `O=C(CNC1CCCCC1)Nc1ccc(S(=O)(=O)N2CCCCC2)cc1`, for which the “hERG current change (%, negative = inhibition) at 1uM” value stood at 6.26%.

Consider `CCN(CC)C(=O)CNC(=O)Cc1ccc(Cl)cc1`, for which the “hERG current change (%, negative = inhibition) at 1uM” value is -15%.

As for `Cc1cccc(S(=O)(=O)N(CC(=O)Nc2ccccc2C)Cc2ccco2)c1`, the “hERG current change (%, negative = inhibition) at 1uM” value was -6.86%.

Regarding `CC(C)n1c(=O)c2c(O)cc(=O)oc2c2ccccc21`, the “hERG current change (%, negative = inhibition) at 1uM” value amounted to 7.9%.

`CCCNC(=O)c1onc(CSc2ccc(F)cc2)c1C(=O)NCCOC`: the “hERG current change (%, negative = inhibition) at 1uM” value is 8.95%.

Regarding `Cc1nn(Cc2ccccc2Cl)c(C)c1C(=O)OCC(=O)N1CC(C)OC(C)C1` (stereo not shown), the “hERG current change (%, negative = inhibition) at 1uM” value amounted to 16.1%.

As to `Cn1nnc(NC(=O)COc2ccc(C3CCCCC3)cc2)n1`, the “hERG current change (%, negative = inhibition) at 1uM” value is given as -4.08%.

Consider `COc1cccc(NC(=O)c2cccnc2)c1`, for which the “hERG current change (%, negative = inhibition) at 1uM” value is 10.9%.

Turning to `Clc1ccc(OCCSc2ncccn2)c2ccccc12`, the “hERG current change (%, negative = inhibition) at 1uM” value turned out to be 19.8%.

Turning to `O=C(NCC1CCCO1)c1ccc2c(=O)n(-c3ccc(F)cc3)c(=S)[nH]c2c1` (stereo not shown), the “hERG current change (%, negative = inhibition) at 1uM” value is listed as 2.97%.

Regarding `O=C(CSc1nncn1-c1cccnc1)Nc1ccccc1C(F)(F)F`, the “hERG current change (%, negative = inhibition) at 1uM” value was 1.88%.

Consider `COc1ccc(C(=O)Cn2cc[n+](C)c2)cc1.[Br-]`, for which the “hERG current change (%, negative = inhibition) at 1uM” value is listed as 8.31%.

Take `CCOc1cc(C2NC(=O)NC(c3ccccc3)=C2C(C)=O)ccc1OCC(N)=O` (stereo not shown): the “hERG current change (%, negative = inhibition) at 1uM” value is -7.7%.

As for `COc1ccc(Nc2nc(C)cc(=O)[nH]2)c(OC)c1`, the “hERG current change (%, negative = inhibition) at 1uM” value is listed as -5.38%.

Take `Cc1ccc(S(=O)(=O)NCCC(=O)O)cc1`: the “hERG current change (%, negative = inhibition) at 1uM” value worked out at 10.1%.

Regarding `O=C(CN(C1CCCCC1)S(=O)(=O)c1ccc(Cl)cc1)N1CCOCC1`, the “hERG current change (%, negative = inhibition) at 1uM” value was -34.1%.

Take `COc1ccc(-c2nc(N)ncc2-c2ccc(Cl)cc2)c(O)c1`: the “hERG current change (%, negative = inhibition) at 1uM” value was found to be 19%.

In the case of `CCC(=O)c1ccc(N2CCN(C(=O)c3cc([N+](=O)[O-])ccc3N3CCN(C)CC3)CC2)c(F)c1`, the “hERG current change (%, negative = inhibition) at 1uM” value is -4.16%.

As for `CC(Sc1nc2ccccc2c(=O)n1CC1CCCO1)C(=O)Nc1ccc(S(N)(=O)=O)cc1` (stereo not shown), the “hERG current change (%, negative = inhibition) at 1uM” value came out at 3.99%.

`CC1=C(C(=O)Nc2ccccc2)C(c2ccco2)n2ncnc2N1` (stereo not shown): the “hERG current change (%, negative = inhibition) at 1uM” value was found to be 12.9%.

`Cc1cc2nnc(SCC(=O)NCC3CCCO3)n2c2ccccc12` (stereo not shown): the “hERG current change (%, negative = inhibition) at 1uM” value was 10.6%.

On to `COc1cccc(NC(=O)COC(=O)CCC(=O)c2cccs2)c1`, for which the “hERG current change (%, negative = inhibition) at 1uM” value was 5.18%.

On to `S=c1nc(C2CC2)[nH]c2ccccc12`, for which the “hERG current change (%, negative = inhibition) at 1uM” value is 1.25%.
